In the RNAGym collection of RNA variant scans (doi:10.1101/gad.245936.114):
This sample is rich in variants without activity.

B1: tRNA (parent)
chain: CUCUCGGUAGCCAAGUUGGUUUAAGGCGCAAGACUUUAAUUUAUCACUACGAAAUCUUGAGAUCGGGCGUUCGACUCGCCCCCGGGAGAUUUUUUCCUCGAGCAA

Variants of: B1
Assay: nonsense suppression (GFP-seq) (ratio to wild type); higher = more function; SUP4oc tRNA, yeast GFP reporter sort-seq
Method in brief: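 To measure nonsense suppression, tRNA variants from a library carrying ~3% random mutations were integrated into the yeast genome alongside RFP and a GFP ochre reporter under galactose control. Growth took place in raffinose/galactose medium supplemented with 80 mg/L adenine, followed by sorting into GFP/RFP bins and Illumina sequencing of each bin (phred ≥30). For each variant with ≥100 reads and ≥30 cells, the bin median GFP/RFP values were weighted by its estimated cell share per bin and referenced to the unmutated parent tRNA.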

Variant | nonsense suppression
CUCUCGGUAGCCAAGUUGGUUUAAGGCGCAAUACUUUAAUUUAUCACUACGAAAUCUUUAUAUCGGGCGUUCGACUCGCCCCCGGGAGAUUUUUUCCUCGAGCAA | ≤ 0.026
CUCUCGGUAGCCAAGUUGGUUUAAGGCGCAAUACUUUAAUUUAUCACUACGAAAUCUUGAGAUCGCGCGUUCGACUCGCCCCCGGGAGAUUUUUUCCUCGAGCAA | ≤ 0.026
CUCUCGGUAGCCAAGUUGGUUUAAGGCGCAAUACUUUAAUUUAUCACUACGAAAUCUUGAGAUCGUGCGUUCGACUCGCCCCCGGGAGAUUUUUUCCUCGAGCAA | ≤ 0.026
CUCUCGGUAGCCAAGUUGGUUUAAGGCGCAACACUUUAAUUUAUCACUACGAAAUCUUGAGAUCGGCCGCUCGACUCGCCCCAGGGAGAUUUUUUCCUCGAGCAA | ≤ 0.026
CUCUCGGUAGCCAAGUUGGUUUAAGGCGCAAUACUUUAAUUUAUCACUACGAAAUCUUGAGAUCGGGCGUUGGACUCGCCCCCGGGAGAUUUUUUCCUCGAGCAA | ≤ 0.026
CUCUCGGUAGCCAAGUUGGUUUAAGGCGCAACACUUUAAUUUAUCACUACGAAAUCAUGAGAUCGGGCAUUCGACUCGCCCCCGGGAGAUUUUUUCCUCGAGCAA | ≤ 0.026
CUCUCGGUAGCCAAGUUGGUUUAAGGCGCAAAACUUUAAUUUAUCACUACGAAAUCUUGAGAUCGGGCGCUCGACUCGCCCCCGAGAGAUUUUUUCCUCGAGCAA | ≤ 0.026
CUCUCGGUAGCCAAGUUGGUUUAAGGCGCAACACUUUAAUUUAUCACUACGAAAUCUUGAGAUCGGGCGUUCGACUCGCCCCCGGGACAUUUUUUCCUCGAGCAA | ≤ 0.026
CUCUCGGUAGCCAAGUUGGUUUAAGGCGCAACACUUUAAUUUAUCACUACGAAAUGUUGCGAUCGGGCGUUCGACUCGCCCCCGGGAGAUUUUUUCCUCGAGCAA | 0.275
CUCUCGGUAGCCAAGUUGGUUUAAGGCGCAAUACUUUAAUUUAUCACUACGAAGUCUUGAGAGCGGGCGCCCGUCUCGCCCCCGGGAGAUUUUUUCCUCGAGCAA | ≤ 0.026
CUCUCGGUAGCCAAGUUGGUUUAAGGCGCAACAAUUUAAUUUAUCACUACGAAAUCUUGAGAUCGGGCGUGCGACACGCCCCCGGGAUAUUUUUUCCUCGAGCAA | ≤ 0.026
CUCUCGGUAGCCAAGUUGGUUUAAGGCGCAACACUUUAAUUUAUCACUACGAAAUCUUGUGAUCGGGCGUUCGACUCGCCCCCGGGAGAUUUUUUCCUCGAGCAA | ≤ 0.026
CUCUCGGUAGCCAAGUUGGUUUAAGGCGCAACACUUUAAUUUAUCACUACGAAAUCUUGCGAUCGGGCGUUCGACUCGCCCCCGGGAGAUUUUUUCCUCGAGCAA | ≤ 0.026
CUCUCGGUAGCCAAGUUGGUUUAAGGCGCAAUACUUUAAUUUAUCACUACGAAAUCUUGAGAUCGGGCGUUCGACUCGCGCCCGGGAGAUUUUUUCCUCGAGCAA | ≤ 0.026
CUCUCGGUAGCCAAGUUGGUUUAAGGCGCAAUACUUUAAUUUAUCACUACGAAAUCUUUAGAUCGGCCUUUCGACUCGCCCCCGGGAGAUUUUUUCCUCGAGCAA | ≤ 0.026
CUCUCGGUAGCCAAGUUGGUUUAAGGCGCAAUACUUUAAUUUAUCACUACGAACUCUUGAGAUCGGGCGUUCGACUCGCCCCCGGGAGAUUUUUUCCUCGAGCAA | ≤ 0.026
CUCUCGGUAGCCAAGUUGGUUUAAGGCGCAAUACUUUAAUUUAUCACUACGAACUCUUGAGAUCGGGCGUUCGACUCGCCGCCGGGAGAUUUUUUCCUCGAGCAA | ≤ 0.026
CUCUCGGUAGCCAAGUUGGUUUAAGGCGCAAAACUUUAAUUUAUCACUACGAAAUCUUGAGACCGGACGUUCGACUCGCCCCCGGGAGAUUUUUUCCUCGAGCAA | ≤ 0.026
CUCUCGGUAGCCAAGUUGGUUUAAGGCGCAAUACUUUAAUUUAUCACUACGAAAUCUUGAGAUCAGGCGUUCGACUCGCCCCCGGGAGAUUUUUUCCUCGAGCAA | ≤ 0.026
CUCUCGGUAGCCAAGUUGGUUUAAGGCGCAACACUUUAAUUUAUCACUACGAAAUCUUGAGAUCGGGCGUUCGACUGGCCCCCGGGAGAUUUUUUCCUCGAGCAA | ≤ 0.026
CUCUCGGUAGCCAAGUUGGUUUAAGGCGCAAUACUUUAAUUUAUCACUACGAAAUCUUCAGAUCGGGCGUUCGACUCCCCCCCGGGAGAUUUUUUCCUCGAGCAA | ≤ 0.026
CUCUCGGUAGCCAAGUUGGUUUAAGGCGCAACACUUUAAUUUAUCACUACGAAAUCUUGAGAUCGGGCGUUCGGCCCGCCCCCGGGACAUUUUUUCCUCGAGCAA | ≤ 0.026
CUCUCGGUAGCCAAGUUGGUUUAAGGCGCAACACUUUAAUUUAUCACUACGAAAUCUUGAGAUCGGGCGUUCGACUCGCCCCCGGGAGGUUUUUUCCUCGAGCAA | ≤ 0.026
CUCUCGGUAGCCAAGUUGGUUUAAGGCGCAAAACUUUAAUUUAUCACUACGAAAUCGUGAGAUCGGGCGUUCGACUCGCCCCCCGGAGAUUUUUUCCUCGAGCAA | ≤ 0.026
CUCUCGGUAGCCAAGUUGGUUUAAGGCGCAAUAGUUUAAUUUAUCACUACGAAAUCUUGAGAUCGGGCGUUCGACUCGCCCCCGGGAGAUUUUUUCCUCGAGCAA | ≤ 0.026
CUCUCGGUAGCCAAGUUGGUUUAAGGCGCAAUAUUUUAAUUUAUCACUACGAAAUCUUGAGAUCGGGCGUUCGACUCGCCCCCGGGAGAUUUUUUCCUCGAGCAA | ≤ 0.026
CUCUCGGUAGCCAAGUUGGUUUAAGGCGCAAUACUUUAAUUUAUCACUACGAAAUCUUGAGAUCGGGCGUUCGACUCGCCCUCGGGAGAUUUUUUCCUCGAGCAA | ≤ 0.026
